Test [1] deals with T1, FLAG-tagged NuSAP (nucleolar and spindle-associated protein) (human (cDNA library from HEK 293T cells)) (UniProt Q9BXS6).
T1 sequence: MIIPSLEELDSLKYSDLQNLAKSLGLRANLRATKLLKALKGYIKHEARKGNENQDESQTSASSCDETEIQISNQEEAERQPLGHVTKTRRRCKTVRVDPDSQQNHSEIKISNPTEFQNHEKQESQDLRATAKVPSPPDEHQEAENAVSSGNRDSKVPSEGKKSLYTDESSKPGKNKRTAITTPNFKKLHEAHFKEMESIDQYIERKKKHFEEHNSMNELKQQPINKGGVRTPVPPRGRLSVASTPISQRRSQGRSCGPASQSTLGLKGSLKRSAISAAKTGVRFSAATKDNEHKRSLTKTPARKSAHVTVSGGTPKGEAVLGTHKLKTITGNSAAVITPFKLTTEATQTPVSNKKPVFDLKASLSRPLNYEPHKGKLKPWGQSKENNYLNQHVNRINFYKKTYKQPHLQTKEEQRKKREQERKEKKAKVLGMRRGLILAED
Put plainly: co-IP; FLAG M2 beads with lysates of transfected HEK 293T cells (M-PER, nocodazole 10 μg/ml), 1 h, 4 °C; western blot; in Figure 4A with or without co-expressed Aurora B.

In test [2] the target is T2, FLAG-tagged MCAK (human (cDNA library from HEK 293T cells)) (UniProt Q99661).
T2 sequence: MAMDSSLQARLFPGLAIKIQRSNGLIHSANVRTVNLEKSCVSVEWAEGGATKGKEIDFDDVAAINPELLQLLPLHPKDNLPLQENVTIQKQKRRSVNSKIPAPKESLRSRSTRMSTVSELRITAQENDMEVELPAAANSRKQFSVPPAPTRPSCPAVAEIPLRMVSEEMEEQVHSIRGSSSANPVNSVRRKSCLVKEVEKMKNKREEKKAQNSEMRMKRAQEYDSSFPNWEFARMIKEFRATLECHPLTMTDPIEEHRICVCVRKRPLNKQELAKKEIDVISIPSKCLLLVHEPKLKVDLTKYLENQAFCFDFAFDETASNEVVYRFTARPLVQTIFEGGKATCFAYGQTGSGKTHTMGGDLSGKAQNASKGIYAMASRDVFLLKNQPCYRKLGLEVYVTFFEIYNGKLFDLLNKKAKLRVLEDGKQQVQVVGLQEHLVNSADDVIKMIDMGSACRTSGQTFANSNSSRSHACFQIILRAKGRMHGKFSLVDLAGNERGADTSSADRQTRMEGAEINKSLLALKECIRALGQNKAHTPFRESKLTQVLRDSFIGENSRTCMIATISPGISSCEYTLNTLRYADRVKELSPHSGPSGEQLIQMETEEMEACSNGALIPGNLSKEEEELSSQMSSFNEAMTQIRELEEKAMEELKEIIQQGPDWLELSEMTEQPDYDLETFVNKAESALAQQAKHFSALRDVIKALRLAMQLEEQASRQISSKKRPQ
Put plainly: co-IP; as a2, FLAG-MCAK and HA-NuSAP, cells treated with 2 μM ZM447439 (Aurora B inhibitor) for 45 min.

The target of test [3] is T2, FLAG-tagged MCAK (human (cDNA library from HEK 293T cells)). Put plainly: co-IP; FLAG M2 beads with lysates of transfected HEK 293T cells (M-PER, nocodazole 10 μg/ml), 1 h, 4 °C; western blot; in Figure 4A with or without co-expressed Aurora B.
In test [4] the target is T3, MCAK, HA- or FLAG-tagged, as used in the mapping co-immunoprecipitation of Figure 2B (human (cDNA library from HEK 293T cells)) (UniProt Q99661).
T3 sequence: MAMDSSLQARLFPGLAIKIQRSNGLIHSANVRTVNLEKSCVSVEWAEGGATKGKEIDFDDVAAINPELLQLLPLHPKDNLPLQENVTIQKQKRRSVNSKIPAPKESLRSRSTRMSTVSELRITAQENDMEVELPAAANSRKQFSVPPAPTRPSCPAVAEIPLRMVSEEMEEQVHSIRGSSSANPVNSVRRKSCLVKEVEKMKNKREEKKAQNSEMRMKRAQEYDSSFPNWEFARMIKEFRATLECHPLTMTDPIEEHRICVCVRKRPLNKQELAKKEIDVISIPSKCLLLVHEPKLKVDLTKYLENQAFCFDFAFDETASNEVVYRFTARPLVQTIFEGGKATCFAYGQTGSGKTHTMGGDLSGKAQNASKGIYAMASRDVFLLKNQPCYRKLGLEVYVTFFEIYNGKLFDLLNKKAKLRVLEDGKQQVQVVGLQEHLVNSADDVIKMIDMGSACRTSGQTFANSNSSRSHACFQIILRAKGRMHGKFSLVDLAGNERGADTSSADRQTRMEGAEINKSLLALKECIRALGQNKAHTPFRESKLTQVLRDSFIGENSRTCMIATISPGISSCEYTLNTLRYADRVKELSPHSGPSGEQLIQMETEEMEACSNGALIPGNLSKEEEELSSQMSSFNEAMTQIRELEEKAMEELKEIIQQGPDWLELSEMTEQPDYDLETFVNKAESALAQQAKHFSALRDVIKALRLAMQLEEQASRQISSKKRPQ
The test is described as above.

Results are given in words; binding and its absence hold for the method and conditions named. Binding seen in cells or lysates may run through a third protein. Some results given as binding are weak or reduced against the parent protein; the word gives no strength. Sequences can lack the tags named with a protein.

B1: GFP-MCAK-His (protein, UniProt P70096 1-718)
chain: MESLPARLFPGLSIKIQRSNGLIHSANISTVNVEKSCVSVEWIEGGNTKGKEIDFDDVAAINPELLQLLPLHPKDNLPLQENVTVPKQKRRSVNSKIPAPKEGLRSRSTRMSTVPEVRIATQENEMEVELPVATNSRKQFSVATGLPRPSCPAMTELPLSMVSEEAEEQVHPTRSTSSANPARRKSCIVKEMEKMKNKREEKRAQNSEIRIKRAQEYDSSFPNWEFARMIKEFRVTIECHPLTLTDPTEEHRICVCVRKRPLNKQELAKKEIDVISVPSKCLLFVHEPKLKVDLTKYLENQAFCFDFAFDETASNEVVYRFTARPLVQTIFEGGKATCFAYGQTGSGKTHTMGGDLSGKSQNTSKGIYAMASRDVFLLKSQPRYRNLNLEVYVTFFEIYNGKVFDLLNKKAKLRVLEDSKQQVQVVGLQEYLVNCADDVIKMLNMGSACRTSGQTFANSNSSRSHACFQILLRAKGRLHGKFSLVDLAGNERGADTSSADRQTRMEGAEINKSLLALKECIRALGQNKAHTPFRESKLTQVLRDSFIGENSRTCMIAMISPGISSCEYTLNTLRYADRVKELSPHSGLSGEQPIQMETEEMEASSNGTSLAVNFKEEEELSSQMSSFNEAMSQIRELEERAMEELREIIQQGPGWLELSEMTDQPDYDLETFVNKAESALTQQTKHFSALREVIKALRVAMQLEEQASKQMNSKKRHQ
Turning to B1, in test [1], the binding result is “binds”.

B2: GFP-MCAK 5A-His (phospho-deficient MCAK 5A) (protein, UniProt P70096 1-718)
chain: MESLPARLFPGLSIKIQRSNGLIHSANISTVNVEKSCVSVEWIEGGNTKGKEIDFDDVAAINPELLQLLPLHPKDNLPLQENVTVPKQKRRAVNSKIPAPKEGLRARATRMATVPEVRIATQENEMEVELPVATNSRKQFSVATGLPRPSCPAMTELPLSMVSEEAEEQVHPTRSTSSANPARRKACIVKEMEKMKNKREEKRAQNSEIRIKRAQEYDSSFPNWEFARMIKEFRVTIECHPLTLTDPTEEHRICVCVRKRPLNKQELAKKEIDVISVPSKCLLFVHEPKLKVDLTKYLENQAFCFDFAFDETASNEVVYRFTARPLVQTIFEGGKATCFAYGQTGSGKTHTMGGDLSGKSQNTSKGIYAMASRDVFLLKSQPRYRNLNLEVYVTFFEIYNGKVFDLLNKKAKLRVLEDSKQQVQVVGLQEYLVNCADDVIKMLNMGSACRTSGQTFANSNSSRSHACFQILLRAKGRLHGKFSLVDLAGNERGADTSSADRQTRMEGAEINKSLLALKECIRALGQNKAHTPFRESKLTQVLRDSFIGENSRTCMIAMISPGISSCEYTLNTLRYADRVKELSPHSGLSGEQPIQMETEEMEASSNGTSLAVNFKEEEELSSQMSSFNEAMSQIRELEERAMEELREIIQQGPGWLELSEMTDQPDYDLETFVNKAESALTQQTKHFSALREVIKALRVAMQLEEQASKQMNSKKRHQ
B2: the binding entry in test [1] is given as “binds”.

B3: GFP-MCAK 5E-His (phospho-mimicking MCAK 5E) (protein, UniProt P70096 1-718)
chain: MESLPARLFPGLSIKIQRSNGLIHSANISTVNVEKSCVSVEWIEGGNTKGKEIDFDDVAAINPELLQLLPLHPKDNLPLQENVTVPKQKRREVNSKIPAPKEGLRERETRMETVPEVRIATQENEMEVELPVATNSRKQFSVATGLPRPSCPAMTELPLSMVSEEAEEQVHPTRSTSSANPARRKECIVKEMEKMKNKREEKRAQNSEIRIKRAQEYDSSFPNWEFARMIKEFRVTIECHPLTLTDPTEEHRICVCVRKRPLNKQELAKKEIDVISVPSKCLLFVHEPKLKVDLTKYLENQAFCFDFAFDETASNEVVYRFTARPLVQTIFEGGKATCFAYGQTGSGKTHTMGGDLSGKSQNTSKGIYAMASRDVFLLKSQPRYRNLNLEVYVTFFEIYNGKVFDLLNKKAKLRVLEDSKQQVQVVGLQEYLVNCADDVIKMLNMGSACRTSGQTFANSNSSRSHACFQILLRAKGRLHGKFSLVDLAGNERGADTSSADRQTRMEGAEINKSLLALKECIRALGQNKAHTPFRESKLTQVLRDSFIGENSRTCMIAMISPGISSCEYTLNTLRYADRVKELSPHSGLSGEQPIQMETEEMEASSNGTSLAVNFKEEEELSSQMSSFNEAMSQIRELEERAMEELREIIQQGPGWLELSEMTDQPDYDLETFVNKAESALTQQTKHFSALREVIKALRVAMQLEEQASKQMNSKKRHQ
B3: the binding result in test [1] is reported as “binds”.

B4: HA-tagged NuSAP (protein, UniProt Q9BXS6 1-441)
chain: MIIPSLEELDSLKYSDLQNLAKSLGLRANLRATKLLKALKGYIKHEARKGNENQDESQTSASSCDETEIQISNQEEAERQPLGHVTKTRRRCKTVRVDPDSQQNHSEIKISNPTEFQNHEKQESQDLRATAKVPSPPDEHQEAENAVSSGNRDSKVPSEGKKSLYTDESSKPGKNKRTAITTPNFKKLHEAHFKEMESIDQYIERKKKHFEEHNSMNELKQQPINKGGVRTPVPPRGRLSVASTPISQRRSQGRSCGPASQSTLGLKGSLKRSAISAAKTGVRFSAATKDNEHKRSLTKTPARKSAHVTVSGGTPKGEAVLGTHKLKTITGNSAAVITPFKLTTEATQTPVSNKKPVFDLKASLSRPLNYEPHKGKLKPWGQSKENNYLNQHVNRINFYKKTYKQPHLQTKEEQRKKREQERKEKKAKVLGMRRGLILAED
Turning to B4, the binding result in test [2] is “no binding (condition: with 2 μM ZM447439 for 45 min)”; in test [3] it was “binds”.

B5: NuSAP^delMCBD (NuSAP with amino acids 433-441 deleted from the C-terminus) (domain or fragment, UniProt Q9BXS6 1-432)
chain: MIIPSLEELDSLKYSDLQNLAKSLGLRANLRATKLLKALKGYIKHEARKGNENQDESQTSASSCDETEIQISNQEEAERQPLGHVTKTRRRCKTVRVDPDSQQNHSEIKISNPTEFQNHEKQESQDLRATAKVPSPPDEHQEAENAVSSGNRDSKVPSEGKKSLYTDESSKPGKNKRTAITTPNFKKLHEAHFKEMESIDQYIERKKKHFEEHNSMNELKQQPINKGGVRTPVPPRGRLSVASTPISQRRSQGRSCGPASQSTLGLKGSLKRSAISAAKTGVRFSAATKDNEHKRSLTKTPARKSAHVTVSGGTPKGEAVLGTHKLKTITGNSAAVITPFKLTTEATQTPVSNKKPVFDLKASLSRPLNYEPHKGKLKPWGQSKENNYLNQHVNRINFYKKTYKQPHLQTKEEQRKKREQERKEKKAKVLGM
With B5, in test [4], the binding entry is reported as “no binding”.

These data come from publication PMC4702128.
